The supplement of paper PMC8728848
Some of the results follow.

Assays:
Assay in all cases: glycan array binding signal (z-score within array); higher = stronger binding
Details in all cases: glycan notation: IUPAC condensed, linker removed
[1] = target: GlcNAc(b1-3)Gal(b1-3)GalNAc
Procedure, shortened: (§1)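 Arrays were curated from the Consortium for Functional Glycomics database, 3228 in total, and kept only where the protein sequence was available. Binding is expressed as a within-array Z-score. This score was averaged across arrays of the same protein sequence at different concentrations or buffers and across linkers, and negative values can be read as non-binding.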

[2] = target: GlcNAc(b1-3)Gal(b1-4)Glc
Procedure, shortened: as §1

[3] = target: GlcNAc(b1-3)Gal(b1-4)GlcNAc
Procedure, shortened: as §1

[4] = target: GlcNAc(b1-3)Gal(b1-4)GlcNAc(b1-2)Man(a1-3)[GlcNAc(b1-3)Gal(b1-4)GlcNAc(b1-2)Man(a1-6)]Man(b1-4)GlcNAc(b1-4)GlcNAc
Procedure, shortened: as §1

[5] = target: GlcNAc(b1-3)Gal(b1-4)GlcNAc(b1-2)Man(a1-3)[GlcNAc(b1-3)Gal(b1-4)GlcNAc(b1-2)Man(a1-6)]Man(b1-4)GlcNAc(b1-4)[Fuc(a1-6)]GlcNAc
Procedure, shortened: as §1

[6] = target: GlcNAc(b1-3)Gal(b1-4)GlcNAc(b1-2)[GlcNAc(b1-3)Gal(b1-4)GlcNAc(b1-6)]Man(a1-6)[GlcNAc(b1-3)Gal(b1-4)GlcNAc(b1-2)Man(a1-3)]Man(b1-4)GlcNAc(b1-4)GlcNAc
Procedure, shortened: as §1

[7] = target: GlcNAc(b1-3)Gal(b1-4)GlcNAc(b1-3)Gal(b1-4)GlcNAc
Procedure, shortened: as §1

[8] = target: GlcNAc(b1-3)Gal(b1-4)GlcNAc(b1-3)Gal(b1-4)GlcNAc(b1-2)Man(a1-3)[GlcNAc(b1-3)Gal(b1-4)GlcNAc(b1-3)Gal(b1-4)GlcNAc(b1-2)Man(a1-6)]Man(b1-4)GlcNAc(b1-4)GlcNAc
Procedure, shortened: as §1

[9] = target: GlcNAc(b1-3)Gal(b1-4)GlcNAc(b1-3)Gal(b1-4)GlcNAc(b1-2)Man(a1-3)[GlcNAc(b1-3)Gal(b1-4)GlcNAc(b1-3)Gal(b1-4)GlcNAc(b1-2)Man(a1-6)]Man(b1-4)GlcNAc(b1-4)[Fuc(a1-6)]GlcNAc
Procedure, shortened: as §1

[10] = target: GlcNAc(b1-3)Gal(b1-4)GlcNAc(b1-3)Gal(b1-4)GlcNAc(b1-2)[GlcNAc(b1-3)Gal(b1-4)GlcNAc(b1-3)Gal(b1-4)GlcNAc(b1-6)]Man(a1-6)[GlcNAc(b1-3)Gal(b1-4)GlcNAc(b1-3)Gal(b1-4)GlcNAc(b1-2)Man(a1-3)]Man(b1-4)GlcNAc(b1-4)[Fuc(a1-6)]GlcNAc
Procedure, shortened: as §1

[11] = target: GlcNAc(b1-3)Gal(b1-4)GlcNAc(b1-3)Gal(b1-4)GlcNAc(b1-3)Gal(b1-4)GlcNAc(b1-2)Man(a1-3)[GlcNAc(b1-3)Gal(b1-4)GlcNAc(b1-3)Gal(b1-4)GlcNAc(b1-3)Gal(b1-4)GlcNAc(b1-2)Man(a1-6)]Man(b1-4)GlcNAc(b1-4)GlcNAc
Procedure, shortened: as §1

[12] = target: GlcNAc(b1-3)Gal(b1-4)GlcNAc(b1-3)Gal(b1-4)GlcNAc(b1-3)Gal(b1-4)GlcNAc(b1-2)Man(a1-3)[GlcNAc(b1-3)Gal(b1-4)GlcNAc(b1-3)Gal(b1-4)GlcNAc(b1-3)Gal(b1-4)GlcNAc(b1-2)Man(a1-6)]Man(b1-4)GlcNAc(b1-4)[Fuc(a1-6)]GlcNAc
Procedure, shortened: as §1

[13] = target: GlcNAc(b1-3)Gal(b1-4)GlcNAc(b1-3)Gal(b1-4)GlcNAc(b1-3)Gal(b1-4)GlcNAc(b1-2)[GlcNAc(b1-3)Gal(b1-4)GlcNAc(b1-3)Gal(b1-4)GlcNAc(b1-3)Gal(b1-4)GlcNAc(b1-6)]Man(a1-6)[GlcNAc(b1-3)Gal(b1-4)GlcNAc(b1-3)Gal(b1-4)GlcNAc(b1-3)Gal(b1-4)GlcNAc(b1-2)Man(a1-3)]Man(b1-4)GlcNAc(b1-4)[Fuc(a1-6)]GlcNAc
Procedure, shortened: as §1

[14] = target: GlcNAc(b1-3)Gal(b1-4)GlcNAc(b1-3)Gal(b1-4)GlcNAc(b1-3)Gal(b1-4)GlcNAc(b1-3)Gal(b1-4)GlcNAc(b1-2)Man(a1-3)[GlcNAc(b1-3)Gal(b1-4)GlcNAc(b1-3)Gal(b1-4)GlcNAc(b1-3)Gal(b1-4)GlcNAc(b1-3)Gal(b1-4)GlcNAc(b1-2)Man(a1-6)]Man(b1-4)GlcNAc(b1-4)GlcNAc
Procedure, shortened: as §1

[15] = target: GlcNAc(b1-3)Gal(b1-4)GlcNAc(b1-3)Gal(b1-4)GlcNAc(b1-3)Gal(b1-4)GlcNAc(b1-3)Gal(b1-4)GlcNAc(b1-2)Man(a1-3)[GlcNAc(b1-3)Gal(b1-4)GlcNAc(b1-3)Gal(b1-4)GlcNAc(b1-3)Gal(b1-4)GlcNAc(b1-3)Gal(b1-4)GlcNAc(b1-2)Man(a1-6)]Man(b1-4)GlcNAc(b1-4)[Fuc(a1-6)]GlcNAc
Procedure, shortened: as §1

[16] = target: GlcNAc(b1-3)Gal(b1-4)GlcNAc(b1-3)Gal(b1-4)GlcNAc(b1-3)Gal(b1-4)GlcNAc(b1-3)Gal(b1-4)GlcNAc(b1-2)[GlcNAc(b1-3)Gal(b1-4)GlcNAc(b1-3)Gal(b1-4)GlcNAc(b1-3)Gal(b1-4)GlcNAc(b1-3)Gal(b1-4)GlcNAc(b1-6)]Man(a1-6)[GlcNAc(b1-3)Gal(b1-4)GlcNAc(b1-3)Gal(b1-4)GlcNAc(b1-3)Gal(b1-4)GlcNAc(b1-3)Gal(b1-4)GlcNAc(b1-2)Man(a1-3)]Man(b1-4)GlcNAc(b1-4)[Fuc(a1-6)]GlcNAc
Procedure, shortened: as §1

[17] = target: GlcNAc(b1-3)Gal(b1-4)GlcNAc(b1-3)Gal(b1-4)GlcNAc(b1-3)GalNAc
Procedure, shortened: as §1

[18] = target: GlcNAc(b1-3)Gal(b1-4)GlcNAc(b1-3)GalNAc
Procedure, shortened: as §1

[19] = target: GlcNAc(b1-3)Gal(b1-4)GlcNAc(b1-3)[GlcNAc(b1-3)Gal(b1-4)GlcNAc(b1-3)]GalNAc
Procedure, shortened: as §1

[20] = target: GlcNAc(b1-3)Gal(b1-4)GlcNAc(b1-6)[Gal(b1-3)]GalNAc
Procedure, shortened: as §1

[21] = target: GlcNAc(b1-3)Gal(b1-4)GlcNAc(b1-6)[GlcNAc(b1-3)Gal(b1-3)]GalNAc
Procedure, shortened: as §1

[22] = target: GlcNAc(b1-3)Gal(b1-4)GlcNAc(b1-6)[GlcNAc(b1-3)]Gal(b1-4)GlcNAc
Procedure, shortened: as §1

[23] = target: GlcNAc(b1-3)GalNAc
Procedure, shortened: as §1

[24] = target: GlcNAc(b1-3)Man
Procedure, shortened: as §1

[25] = target: GlcNAc(b1-3)[GlcNAc(b1-4)][GlcNAc(b1-6)]GlcNAc
Procedure, shortened: as §1

[26] = target: GlcNAc(b1-3)[GlcNAc(b1-6)]Gal(b1-4)GlcNAc
Procedure, shortened: as §1

[27] = target: GlcNAc(b1-3)[GlcNAc(b1-6)]GalNAc
Procedure, shortened: as §1

[28] = target: GlcNAc(b1-4)Gal(b1-4)GlcNAc
Procedure, shortened: as §1

[29] = target: GlcNAc(b1-4)GlcNAc
Procedure, shortened: as §1

[30] = target: GlcNAc(b1-4)GlcNAc(b1-4)GlcNAc
Procedure, shortened: as §1

[31] = target: GlcNAc(b1-4)GlcNAc(b1-4)GlcNAc(b1-4)GlcNAc(b1-4)GlcNAc
Procedure, shortened: as §1

[32] = target: GlcNAc(b1-4)GlcNAc(b1-4)GlcNAc(b1-4)GlcNAc(b1-4)GlcNAc(b1-4)GlcNAc
Procedure, shortened: as §1

[33] = target: GlcNAc(b1-4)[GlcNAc(b1-6)]GalNAc
Procedure, shortened: as §1

[34] = target: GlcNAc(b1-6)Gal(b1-4)GlcNAc
Procedure, shortened: as §1

[35] = target: GlcNAc(b1-6)GalNAc
Procedure, shortened: as §1

[36] = target: GlcNAc6S(b1-3)Gal(b1-4)GlcNAc
Procedure, shortened: as §1

[37] = target: Kdn(a2-3)Gal(b1-3)GalNAc
Procedure, shortened: as §1

[38] = target: Kdn(a2-3)Gal(b1-3)GlcNAc
Procedure, shortened: as §1

[39] = target: Kdn(a2-3)Gal(b1-4)Glc
Procedure, shortened: as §1

[40] = target: Kdn(a2-3)Gal(b1-4)GlcNAc
Procedure, shortened: as §1

[41] = target: Kdn(a2-3)Gal(b1-4)[Fuc(a1-3)]GlcNAc
Procedure, shortened: as §1

[42] = target: Kdn(a2-6)Gal(b1-4)GlcNAc
Procedure, shortened: as §1

[43] = target: Man(a1-2)Man(a1-2)Man(a1-3)Man
Procedure, shortened: as §1

[44] = target: Man(a1-2)Man(a1-2)Man(a1-6)[Man(a1-3)]Man
Procedure, shortened: as §1

[45] = target: Man(a1-2)Man(a1-3)Man
Procedure, shortened: as §1

B1: CAA (Caragana arborescens) (protein)
chain: VAVEFDTFDNPDWDPRTKHIGIDVNSIRSNKTTQWGFWNRQVADVDISYEASSKTLNVSLYYPGESYIVTDVVDLKDILPEWVRIGF
glycan array binding signal (z-score) [1]: -0.239
glycan array binding signal (z-score) [2]: -0.237
glycan array binding signal (z-score) [3]: -0.244
glycan array binding signal (z-score) [4]: -0.251
glycan array binding signal (z-score) [5]: -0.115
glycan array binding signal (z-score) [6]: -0.238
glycan array binding signal (z-score) [7]: -0.244
glycan array binding signal (z-score) [8]: -0.17
glycan array binding signal (z-score) [9]: -0.206
glycan array binding signal (z-score) [10]: -0.238
glycan array binding signal (z-score) [11]: -0.25
glycan array binding signal (z-score) [12]: -0.227
glycan array binding signal (z-score) [13]: -0.231
glycan array binding signal (z-score) [14]: -0.244
glycan array binding signal (z-score) [15]: -0.23
glycan array binding signal (z-score) [16]: -0.248
glycan array binding signal (z-score) [17]: -0.252
glycan array binding signal (z-score) [18]: -0.248
glycan array binding signal (z-score) [19]: -0.235
glycan array binding signal (z-score) [20]: -0.247
glycan array binding signal (z-score) [21]: -0.246
glycan array binding signal (z-score) [22]: -0.252
glycan array binding signal (z-score) [23]: -0.243
glycan array binding signal (z-score) [24]: -0.219
glycan array binding signal (z-score) [25]: -0.244
glycan array binding signal (z-score) [26]: -0.249
glycan array binding signal (z-score) [27]: -0.239
glycan array binding signal (z-score) [28]: -0.254
glycan array binding signal (z-score) [29]: -0.245
glycan array binding signal (z-score) [30]: -0.241
glycan array binding signal (z-score) [31]: -0.236
glycan array binding signal (z-score) [32]: -0.228
glycan array binding signal (z-score) [33]: -0.241
glycan array binding signal (z-score) [34]: -0.226
glycan array binding signal (z-score) [35]: -0.24
glycan array binding signal (z-score) [36]: -0.236
glycan array binding signal (z-score) [37]: -0.242
glycan array binding signal (z-score) [38]: -0.242
glycan array binding signal (z-score) [39]: -0.237
glycan array binding signal (z-score) [40]: -0.246
glycan array binding signal (z-score) [41]: -0.237
glycan array binding signal (z-score) [42]: -0.232
glycan array binding signal (z-score) [43]: -0.24
glycan array binding signal (z-score) [44]: -0.221
glycan array binding signal (z-score) [45]: -0.247
